Test results: PubChem BioAssay AID1346428 (National Center for Advancing Translational Sciences (NCATS), 2018)
Several values for one entry are separate records, joined by “and”; a condition that tells them apart may be missing. Equal values may be shown once. The campaign covered roughly 48,000 compounds. About 1,200 (2.5%) were called active. About 2% were inconclusive and are not listed.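 Rule for the calls: active = activation of at least 60% and not above a set upper limit (about 1 call in 100 departs from these limits); inconclusive = activation of 40% to 60%, or above that upper limit; inactive = activation under 40%.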 This is one part of the list.

Each compound was assayed against Probable G-protein coupled receptor 32 (Homo sapiens) (UniProt O75388) (assay: qHTS for Agonists of Human Resolvin D1 Receptor DRV1). Conditions: CHO-K1 GPR32 beta-arrestin PathHunter luminescence, 90 min; at 76.9 µM; hits give high values; zero percent set by DMSO-only wells.
Outline: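 Cells are plated overnight, treated with compounds in DMSO for 90 minutes at 37 °C, and developed with PathHunter detection reagent for 1 hour before luminescence is read; signal reflects beta-arrestin binding to GPR32 in engineered CHO-K1 cells.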
Note: 0% is about no effect.

UniProt O75388, sequence (O75388 whole entry, looked up): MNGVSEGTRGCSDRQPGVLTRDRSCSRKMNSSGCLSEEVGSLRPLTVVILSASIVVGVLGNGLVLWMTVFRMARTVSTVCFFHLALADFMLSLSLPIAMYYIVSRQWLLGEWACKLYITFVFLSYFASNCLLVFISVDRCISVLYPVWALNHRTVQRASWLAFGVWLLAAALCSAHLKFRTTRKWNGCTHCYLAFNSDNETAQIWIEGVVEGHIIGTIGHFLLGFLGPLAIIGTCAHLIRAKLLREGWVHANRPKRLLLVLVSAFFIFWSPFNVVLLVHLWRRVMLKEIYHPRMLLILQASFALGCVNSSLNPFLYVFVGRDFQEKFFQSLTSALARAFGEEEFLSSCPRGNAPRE

activation, inactive:
Cc1ccc(CNC(=O)CSC2=Nc3ccccc3C3=NC(C)C(=O)N23)cc1 (stereo not given) -2.08%
Cc1ccc2occ(CC(=O)N3CCN(c4cccc(Cl)c4)CC3)c2c1 -35%
CCCN1CCN(CCCNC(=O)Cn2c(-c3cccs3)cc3cc(Cl)ccc32)CC1 27.1%
Cc1cc(Cl)ccc1NC(=O)c1cc2ccccn2n1 7.17%
COc1ccccc1N1CCN(S(=O)(=O)c2ccc(-c3cnc(C4CC4)o3)cc2)CC1 -8.72%
CC(C)CCNC(=O)c1cn(C)c2ccc(S(=O)(=O)N3CCOCC3)cc2c1=O -4%
Cc1ccc(OCc2nnc(-c3ccccc3)o2)cc1 18.6%
COc1cc2c(=O)c(S(=O)(=O)c3ccccc3)cn(CC(=O)Nc3ccccc3C)c2cc1OC 35.6%
Cc1cc(C)c(NC(=O)Cn2c(=O)n(Cc3ccccc3)c(=O)c3c(C)c(C(=O)N(C)C)sc32)c(C)c1 -13.1%
COc1cc2c(cc1OC)C(COc1ccccc1OC)N(C(=O)c1ccccc1OC)CC2 (stereo not given) -10.2%
Cc1c(Cl)cccc1-n1nc(C)c2c(C)cc(=O)n(CC(=O)NCc3ccccc3)c21 -7.14%
CCc1cccc(NC(=O)CCS(=O)(=O)c2cc3c4c(c2)CCN4C(=O)CC3)c1 1.25%
Cc1cccc(C(=O)Nc2cccc(OCc3cc(=O)n4ccccc4n3)c2)c1 0.17%
CCC(C)NC(=O)CSc1nc2cc3c(cc2c(=O)n1CCCCCC(=O)NCc1ccc(OC)cc1)OCO3 (stereo not given) -9.4%
COc1c(Cl)cc(Cl)cc1CNCCSc1nnnn1C -5.38%
O=C(Nc1nc2n(n1)C(c1ccc(F)cc1)C=C(c1ccccc1)N2)c1cccc([N+](=O)[O-])c1 (stereo not given) -37.3%
CCC1CCCCN1Cc1cn2c(-c3ccc(Br)cc3)nnc2s1 (stereo not given) 14.1%
CCS(=O)(=O)N1CCc2cc(C(=O)Nc3ccc(OC)cc3OC)ccc21 16.3%
CC(=O)c1cccc(NC(=O)c2nc(-c3ccccc3)n(-c3cccc(C)c3)n2)c1 9.97%
CCOc1ccccc1NC(=O)CN1CCN(S(=O)(=O)c2ccc(Br)cc2)CC1 -2.49%
COc1ccc(NC(=O)C2CCC(CNS(=O)(=O)c3cccs3)CC2)cc1OC (stereo not given) 0.402%
Clc1ccccc1-c1nnc(-c2ccccc2CNc2ccccc2)o1 -3.74%
Cc1cccc(CC(=O)Nc2cccc(-c3nc4cccnc4s3)c2)c1 35%
CCN1CCc2c(sc(-n3cccc3)c2C(C)NC(=O)Nc2ccccc2C)C1 (stereo not given) -24.8%
CC(C)NC[C@@H](O)c1ccc(O)c(O)c1 17.5%
CCn1nnc2cc(C(=O)Nc3cccc(C)c3C)ccc21 6.25%
Cc1ccc(C)c(N2CCN(S(=O)(=O)c3csc(C(N)=O)c3)CC2)c1 8.37%
OC(CN1CCC(Cc2ccc(F)cc2)CC1)c1ccc(Cl)cc1 (stereo not given) -27.8% and 5.17%
Cc1cccc(Oc2ccc(NC(=O)CCC(=O)OCC(=O)c3ccc(Br)cc3)cc2)c1C -44.2%
Cc1ccc(C)c(CSc2cn(CCNC(=O)c3ccccc3F)c3ccccc23)c1 -0.805%
COc1cccc(C(C(=O)NCc2ccccc2)N(C(=O)Cn2nnc3ccccc32)c2cccc(C(C)=O)c2)c1 (stereo not given) -18.6%
COc1ccc(NC(=O)c2oc3ccc(S(=O)(=O)N4CCC5(CC4)OCCO5)cc3c2C)cc1Cl 5.95%
COc1ccc(Cc2c(C)nn(-c3nc(C)c(C(=O)Nc4ccc(C)cc4C)s3)c2C)cc1 -4.43%
COc1cc(C2c3c(-c4ccccc4O)n[nH]c3C(=O)N2CCO)ccc1OCC(C)C (stereo not given) -7.99%
Nc1c(C(=O)Nc2ccccc2Cl)nnn1Cc1cccc(Cl)c1 35.9%
COc1cc(OC)cc(-c2nc3nc(C)c(CCC(=O)Nc4ccc(C)cc4)c(C)n3n2)c1 15%
Cc1ccc(NCc2nc3ccccc3n2CCOc2ccccc2C)cc1 -12.1%
COc1ccc(NC(=O)Nc2cccc(C)n2)c(OC)c1 -1.68%
Cc1c2cnn(CC(=O)O)c(=O)c2c(C)n1Cc1cccc(Cl)c1 -26.6%
O=C(CC1N=C2c3ccccc3N=C(SCc3ccc(Cl)cc3)N2C1=O)NC1CCCCC1 (stereo not given) -15%
Cc1cc2c(cc1S(=O)(=O)CCC(=O)Nc1ccc(OC(F)(F)F)cc1)OCC(=O)N2 23.2%
COC(=O)c1cc(NC(=O)c2cnc(SC)nc2-c2ccccc2)cc(C(=O)OC)c1 -20%
Cc1c(CCNS(=O)(=O)c2ccccc2)sc2nc(-c3ccc(Cl)cc3)nn12 32.2%
CCNc1nc2c(c(=O)n(C)c(=O)n2C)n1CC(O)COc1ccccc1 (stereo not given) -4.83%
CC(=O)Oc1c(C)c(C)c2c(c1C)CC[C@@](C)(CCC[C@H](C)CCC[C@H](C)CCCC(C)C)O2 0.0002%
Cc1ccc(-c2cnc(NCc3ccc(C(C)C)cc3)n2C)cc1 -44.5%
O=C(NCc1cccc(Br)c1)c1ccc(-n2cnc3cccnc32)cc1 -17.9%
CCOc1ccc(S(=O)(=O)c2cn(Cc3ccc(C)cc3)c3ccc(OC)cc3c2=O)cc1 -7.96%
CCOc1ccc2cc(-c3nnc(Nc4ccccc4F)s3)c(=O)oc2c1 -7.99%
Cc1ccc(CNC(=O)COCc2cc(-c3ccc4c(c3)OCO4)on2)cc1 -6.48%
COc1ccc(C(C(=O)NCc2ccccc2)N(C(=O)Cn2nnc3ccccc32)c2ccc(F)cc2)cc1 (stereo not given) -15.5%
Cc1cccc(-c2noc(CNC(=O)c3ccc(C)cc3C)n2)c1 8.43%
Cc1ccc(-n2ncc3c(N4CCC(C)CC4)ncnc32)cc1C 18.8%
COc1ccc(NCc2nc3ccccc3n2CCOc2ccc(C)cc2)cc1 1.19%
Cc1ccc(Cl)cc1N1CCN(C(=O)c2cn(C)c3ccc(S(=O)(=O)N4CCC(C)CC4)cc3c2=O)CC1 -6.35%
O=C(NCC(c1ccc(Cl)cc1)N1CCCCC1)c1ccccc1 (stereo not given) -16.8%
CCCOc1ccc(C(=O)N(Cc2cccs2)C2CCS(=O)(=O)C2)cc1 (stereo not given) -0.228%
Cc1cccc(NC(=O)c2ccc(F)c(S(=O)(=O)N(C)C3CCCCC3)c2)c1 -21.9%
CC(=O)Nc1ccc(Nc2nc3ccc(C)cc3n3nnnc23)cc1 36.7%
CCOCCCNC(=O)C(c1ccc(Cl)cc1)N(Cc1ccc2c(c1)OCO2)C(=O)c1ccccc1O (stereo not given) 1.86%
COc1ccc(NC(=O)C(C)n2nc(C)c3c(C)n(-c4ccccc4)nc3c2=O)cc1Cl (stereo not given) -12.4%
Cc1ccc(C)c(OCCCn2c(-c3ccc(Cl)cc3)nc3ccccc3c2=O)c1 14.4%
COc1ccc(-c2nc(S(=O)(=O)c3ccccc3)c(N3CCCCC3)o2)cc1 -6.81%
CCN(Cc1nc(-c2ccc(OC)cc2)oc1C)S(=O)(=O)c1ccc(Cl)cc1 -7.83%
COc1ccc(N2CCN(C(=O)c3cccn4c(=O)c5ccc(Cl)cc5nc34)CC2)cc1 -12.6%
CCN1C(=O)c2ccccc2Sc2ccc(NC(=O)Nc3ccc(C(C)=O)cc3)cc21 4.76%
Cc1ccc2oc(=O)c3cnn(CC(=O)Nc4ccc(Br)cc4C)c3c2c1 4.38%
Cc1ccccc1CNCCCSc1nnnn1-c1ccccc1 0.237%
CCc1cccc(C)c1NC(=O)COCc1cc(-c2ccc3c(c2)OCO3)on1 11.3%
C[C@]12CC[C@@H]3c4ccc(O)cc4CC[C@H]3[C@@H]1CC[C@@H]2O -9%
O=C(c1ccco1)N(Cc1cccnc1)c1nc2c(F)cccc2s1 -28.2%
CC1CCCCN1C(=O)CSc1nc2ccccc2nc1Cc1ccc(Cl)cc1 (stereo not given) 6.05%
CCc1ccccc1NC(=O)C(=O)c1cc(C)n(-c2ccccc2F)c1C -27.3%
Cc1cc(C)c(Cn2c(C)c(CNCc3ccccc3C)c(C(=O)O)c2C)c(C)c1 11.2%
Cc1nn(CC(=O)NCc2cccc(F)c2)c(=O)c2c(C)n(-c3ccc(Cl)cc3)nc12 -13.7%
COc1ccccc1Oc1nc2c(C)cccn2c(=O)c1/C=C(\C#N)c1nc2ccccc2[nH]1 1.86%
CCOC(=O)C1=C(CN2CCN(c3cc(C)ccc3C)CC2)NC(=O)NC1c1ccccc1 (stereo not given) -23.4%
COc1ccc(N(C(=O)c2ccccc2C)S(=O)(=O)c2ccc(C)cc2)cc1 -13.3%
Cc1ccc2c(c1)c1c(c(=O)n(-c3ccccc3)c(=O)n1CC(=O)NCCC1=CCCCC1)n2C -7.3%
CC1CN(C(=O)CCC(=O)NCc2cccs2)c2cc(Cl)ccc2O1 (stereo not given) -23.6%
COc1ccc(-n2cc(C(=O)NCc3ccc(Cl)cc3)c3ccccc3c2=O)cc1 -17.4%
COc1ccc2nc(N(Cc3cccnc3)C(=O)c3ccco3)sc2c1 -18%
CC(C)(C)NCC(O)COc1ccc(NC(=O)NC2CCCCC2)cc1 (stereo not given) -8.93%
Cc1ccc(CCNC(=O)c2cc3sccc3n2Cc2ccc(Cl)cc2)cc1 -4.63%
CCOC(=O)c1cc(-c2ccc(C)cc2)n(CC(=O)Nc2ccc(OC)c(Cl)c2)c1C 33.6%
